Measured values: patent US20050053973A1 (published 2005)

B1: IgE-1.5 (designed binder)
chain: CPANEFQCRNSSTCIPRRWLCDGDDDCGDGSDETGCSAPASEPPGSLCPANEFQCRNSSTCIPRRWLCDGDDDCGDGSDETGCSAPASEPPGSL
notes: On phage in the rank ELISA, purified protein in Biacore; tags and exact junction not readable; also called Walked Dimer 5
B2: IgE-1.23 (designed binder)
chain: CPAGQFRCENGRCLPPPWRCDGVNDCEDNSDEAGCGDSHILPFSTPGPSTCPANEFQCRNSSTCIPRRWLCDGDDDCGDGSDETGCSAPASEPPGSL
notes: On phage in the rank ELISA, purified protein in Biacore; tags not described; also called Walked Dimer 23
B3: IgE-1 (designed binder)
chain: CPANEFQCRNSSTCIPRRWLCDGDDDCGDGSDETGCSAPASEPPGSLSLQ
notes: LDL receptor class A domain monomer; tags not described; also called IgE-1 monomer; Monomer
B4: IgE-1.10 (designed binder)
chain: CPANEFQCRNSSTCIPRRWLCDGDDDCGDGSDETGCSAPASEPPGSLCQSSQFPCHDYEICLPATLLCDGVDDCLDGSDETNCAKPTSLQ
notes: also called Walked Dimer 10
B5: IgE-1.4 (designed binder)
chain: CPANEFQCRNSSTCIPRRWLCDGDDDCGDGSDETGCSAPASEPPGSLCAPNEFQCRDNNTCLPEDWRCDGEDDCADNSDEANCTTPGPTSLQ
notes: also called Walked Dimer 4
B6: IgE-1.1 (designed binder)
chain: CPANEFQCRNSSTCIPRRWLCDGDDDCGDGSDETGCSAPASEPPGSLCQPDQFRCSSGRCLSREWLCDGEDDCEDDSDETDCPTRTSLQ
notes: also called Walked Dimer 1
B7: IgE-1.30 (designed binder)
chain: CPANEFQCRNSSTCIPRRWLCDGDDDCGDGSDETGCSAPASEPPGSLCAASQFRCNNNSRCLPPPLGCDGVDDCGDNSDEADCGRPGPGATSAPAASLQ
notes: also called Walked Dimer 30
B8: IgE-1.12 (designed binder)
chain: CPANEFQCRNSSTCIPRRWLCDGDDDCGDGSDETGCSAPASEPPGSLCPPGEFPCGNGRSVPLTWLCDGVDDCGDNSDETGCETTGRTSLQ
notes: also called Walked Dimer 12
B9: IgE-1.8 (designed binder)
chain: CPANEFQCRNSSTCIPRRWLCDGDDDCGDGSDETGCSAPASEPPGSLCAPSQFRCGNGRCIPRSWRCDGEDDCADDSDEENCSAPASEPPGSLSLQ
notes: also called Walked Dimer 8
B10: IgE-1.25 (designed binder)
chain: CPANEFQCRNSSTCIPRRWLCDGDDDCGDGSDETGCSAPASEPPGSLCLSSQFRCENGQCIPLTWGCDGDDDCQDGSDETNCPTRTSLQ
notes: also called Walked Dimer 25
B11: IgE-1.19 (designed binder)
chain: CPANEFQCRNSSTCIPRRWLCDGDDDCGDGSDETGCSAPASEPPGSLCPPDQFRCKNGRCIPRHLVCDGDDDCGDDSDEAGCQTRTSLQ
notes: also called Walked Dimer 19
B12: IgE-1.2 (designed binder)
chain: CPANEFQCRNSSTCIPRRWLCDGDDDCGDGSDETGCSAPASEPPGSLCLPSQFPCDSGNCLPLTWLCDGVDDCGDNSDEEDCSAPASEPPGSLSLQ
notes: also called Walked Dimer 2
B13: IgE-1.9 (designed binder)
chain: RVWRRLVGSCRPNQFTCKSSETCIPAHWRCDGDDDCGDGSDEADCETRTCPANEFQCRNSSTCIPRRWLCDGDDDCGDGSDETGCSAPASEPPGSL
notes: also called Walked Dimer 9
B14: IgE-1.31 (designed binder)
chain: CPANEFQCRNSSTCIPRRWLCDGDDDCGDGSDETGCSAPASEPPGSLCPANEFQCRNSSTCIPRRWLCDGEDDCGDGSDETGCSAPASEPPGSLSLQ
notes: also called Walked Dimer 31
B15: IgE-1.26 (designed binder)
chain: CPANEFQCRNSSTCIPRRWLCDGDDDCVDGSDETGCGSPVPTCPANEFQCRNSSTCIPRRWLCDGDDDCGDGSDETGCSAPASEPPGSLSLQ
notes: also called Walked Dimer 26
B16: IgE-1.21 (designed binder)
chain: CPANEFQCRNSSTCIPRRWLCDGDDDCGDGSDETGCSAPASEPPGSLCEPGQFQCNNNDTCVSPPWLCDADRDCGRSDERPPHCATPELTSLQ
notes: also called Walked Dimer 21
B17: IgE-1.3 (designed binder)
chain: CPANEFQCRNSSTCIPRRWLCDGDDDCGDGSDETGCSAPASEPPGSLCRANQFPCDNGNCLPQPWRCDGDNDCVDGSDETSCEAPAHTSLQ
notes: also called Walked Dimer 3
B18: IgE-1.16 (designed binder)
chain: CPANEFQCRNSSTCIPRRWLCDGDDDCGDGSDETGCSAPASEPPGSLCRRAEFTCRNGSCLPVPWLCDAENDCPDGSDEPDCGSPARRSLQ
notes: also called Walked Dimer 16
B19: IgE-1.6 (designed binder)
chain: CGSGQFPCGSGHCVPLNWVCDGVDDCGDDSDETDCKAHTCPANEFQCRNSSTCIPRRWLCDGDDDCGDGSDETGCSAPASEPPGSL
notes: also called Walked Dimer 6

Target: T1, human IgE (human, UniProt P01854 1-428)
Assay: Biacore, human IgE coupled to a CM5 chip by NHS/EDC, sample protein in flow

Binder	Kd [nM]
B1	220
B2	320
B3	1100

Target: T1, human IgE
Assay: phage ELISA on six dilutions of immobilised human IgE (2.5 ng to 2.4 pg per well), αM13-HRP; rank of the signal among all clones averaged over the dilutions

T1 sequence (P01854 other isoform, or with tags, fused parts or gaps): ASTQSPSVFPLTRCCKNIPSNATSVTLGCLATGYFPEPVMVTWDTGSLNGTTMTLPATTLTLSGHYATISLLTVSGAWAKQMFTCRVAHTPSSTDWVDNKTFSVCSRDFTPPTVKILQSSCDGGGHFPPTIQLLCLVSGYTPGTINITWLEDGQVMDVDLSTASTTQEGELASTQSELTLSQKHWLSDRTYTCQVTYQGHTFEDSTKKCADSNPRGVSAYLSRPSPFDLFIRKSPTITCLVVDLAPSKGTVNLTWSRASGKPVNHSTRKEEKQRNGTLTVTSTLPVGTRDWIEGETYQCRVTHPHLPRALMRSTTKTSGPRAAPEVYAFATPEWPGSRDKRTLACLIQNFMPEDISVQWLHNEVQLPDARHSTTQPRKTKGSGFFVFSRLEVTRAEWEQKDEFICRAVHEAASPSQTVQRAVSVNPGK

Binder	Avg. Rank [rank]
B4	17
B5	4
B6	4
B7	11
B8	11
B9	9
B10	15
B1	1
B11	9
B12	4
B13	24
B14	6
B2	6
B15	18
B16	11
B17	15
B3	22
B18	10
B19	20
